{
  "source": "PubChem BioAssay AID1347071",
  "about": "(National Center for Advancing Translational Sciences (NCATS), 2019)",
  "note": "The whole screen tested about 410,000 compounds, of which about 260 (0.063%) were called active. Inconclusive results, whose numbers are uncertain, are shown with a selection of clear calls. The call rests on the fitted dose curve; in most records, active means well fitted activation curve with a large enough effect; inconclusive means small, poorly fitted or top-dose-only effect; inactive means no such curve, though single readings can be large or run the other way. Potencies of inconclusive entries are left out as doubtful fits. Potency means the concentration at half of the fitted maximal effect; tags describe the fitted curve by direction and shape.",
  "data": [
    {"assay": "qHTS for compounds that reverse cellular toxicity of Amyloid beta (A-beta) peptide in yeast: Primary Screen; further: nearly all actives have a fitted effect of over 55% in size", "conditions": "yeast expressing A-beta42, growth rescue, OD600, 48 h; growth rescue: at 46.1 µM (top of the series), 0% DMSO, 100% iron-clioquinol control", "outline": "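Growth rescue measured by 600 nm absorbance after 48 h yeast culture at 30 C with compound. Values normalized between DMSO and an equimolar ferric chloride plus clioquinol control.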", "values": [
      {"smiles": "CNC(=S)NNC(=O)CCn1nc(C)c(Br)c1C", "growth rescue": "inactive: -6.97%"},
      {"smiles": "N#C/C(=C\\c1cccnc1)C(=O)Nc1ccc(Cl)cc1", "Potency": "inconclusive [activator, partial curve, poor fit]"},
      {"smiles": "O/N=C/c1cc(Br)ccc1OCc1ccc(F)cc1", "growth rescue": "inactive: -82.8%"},
      {"smiles": "O=C(COc1ccc(Cl)cc1Cl)NN1C(=O)C2C3C=CC([C@@H]2C1=O)C31CC1", "note": "(stereo partly specified)", "Potency": "inconclusive [activator, full curve]"},
      {"smiles": "O=S(=O)(c1ccc(N=C2NN=C(c3cc(F)ccc3F)CS2)cc1)N1CCOCC1", "growth rescue": "inactive: -25.9%"},
      {"smiles": "COc1ccc(C2=NN(S(C)(=O)=O)C(c3cccs3)C2)cc1", "note": "(stereo unspecified)", "Potency": "inconclusive [activator, partial curve]"},
      {"smiles": "Cc1ccc2c(c1)[C@H]1[C@H](CO2)[C@H](c2ccccc2)[C@]2(C)C(=O)N(Cc3ccc(Cl)cc3)CC(=O)N12", "Potency": "inconclusive [activator, partial curve]"},
      {"smiles": "N#CCSc1nc(N)c(C#N)c(C2CCCCC2)c1C#N", "Potency": "inconclusive [activator, partial curve, poor fit]"},
      {"smiles": "CCOC(=O)N1CCN(C(=S)NC(=O)c2ccc(Br)cc2)CC1", "Potency": "inconclusive [activator, single point]"},
      {"smiles": "Fc1cccc(NC(=S)N2CCc3ccccc32)c1", "Potency": "inconclusive [activator, partial curve, poor fit]"},
      {"smiles": "FC(F)(F)c1nc(NCc2cccnc2)c2ccccc2n1", "Potency": "inconclusive [activator, full curve]"},
      {"smiles": "O=C(NCc1ccccc1Cl)C(=O)NCC(c1cccs1)S(=O)(=O)c1cccs1", "note": "(stereo unspecified)", "Potency": "inconclusive [activator, partial curve, poor fit]"},
      {"smiles": "Cc1ccc(NS(=O)(=O)c2ccc(C)c(NC(=O)COc3ccc4ccccc4c3)c2)c(C)c1", "Potency": "inconclusive [activator, partial curve]"},
      {"smiles": "N#Cc1ccccc1NC(=O)Cn1cnc2onc(-c3cccc(F)c3)c2c1=O", "growth rescue": "inactive: -3.58%"},
      {"smiles": "O=C(OCC(=O)C12CC3CC(CC(C3)C1)C2)c1ccc(O)cc1O", "growth rescue": "inconclusive: -64.9% [activator]"},
      {"smiles": "O=C(O)CN1C(=O)/C(=C\\c2cccc(OCc3ccc(Cl)cc3)c2)SC1=S", "Potency": "inconclusive [activator, full curve]"},
      {"smiles": "CCOC(=O)C[C@H]1c2cc(F)ccc2S(=O)(=O)N1c1cccc(OC)c1", "Potency": "inconclusive [activator, partial curve]"},
      {"smiles": "CCCCSc1ncnc2c1c(-c1ccccc1)cn2-c1cccc(F)c1", "growth rescue": "inactive: -6.75%"},
      {"smiles": "O=C1NC2(CCCCCC2)C(=O)N1Cc1ccc(Br)cc1", "Potency": "inconclusive [activator, full curve]"},
      {"smiles": "CCN1CCN(c2c(S(=O)(=O)c3ccc(OC)cc3)cnc3cc(OC)c(OC)cc23)CC1", "growth rescue": "inactive: 0.991%"},
      {"smiles": "Cn1nc([N+](=O)[O-])nc1Oc1ccc(C(C)(C)C)cc1", "Potency": "inconclusive [activator, full curve, poor fit]"},
      {"smiles": "Cc1ccc(-c2nnc(-c3cccc4ccccc34)o2)cc1", "Potency": "inconclusive [activator, partial curve, poor fit]"},
      {"smiles": "O=C(COC(=O)c1cccs1)NC1CCCCC1", "Potency": "inconclusive [activator, partial curve, poor fit]"},
      {"smiles": "COc1ccc(C(C(=O)OC(C)CN(C)C)c2ccccc2)cc1", "note": "(stereo unspecified)", "Potency": "inconclusive [activator, partial curve, poor fit]"},
      {"smiles": "O=C(NCc1ccccc1)C1C(c2ccccc2)=Nc2ccccc2N1C(=O)c1cccnc1", "note": "(stereo unspecified)", "Potency": "inconclusive [activator, partial curve]"},
      {"smiles": "N/C(=N\\S(=O)(=O)c1cc(C(F)(F)F)cc(C(F)(F)F)c1)c1ccc(Cl)cc1", "Potency": "inconclusive [activator, partial curve, poor fit]"},
      {"smiles": "COc1ccc(CNC(=O)CCC(=O)N2CCSc3ccccc32)cc1", "growth rescue": "inactive: -8.04%"},
      {"smiles": "CC(C)(C)n1nc(Cc2cccc3ccccc23)c(C#N)c1N", "Potency": "inconclusive [activator, partial curve, poor fit]"},
      {"smiles": "CCCN(Cc1ccccc1)C(=S)Nc1ccc(OCC)cc1", "Potency": "inconclusive [activator, single point]"},
      {"smiles": "CCCCCC(=O)NNC(=S)NC(=O)c1cccc([N+](=O)[O-])c1", "Potency": "inconclusive [activator, partial curve, poor fit]"},
      {"smiles": "Oc1ccccc1C(=S)N1CCN(c2cccc(Cl)c2)CC1", "Potency": "inconclusive [activator, partial curve, poor fit]"},
      {"smiles": "O=C(Nc1cccnc1)c1ccc(COc2ccccc2Cl)o1", "Potency": "inconclusive [activator, full curve]"},
      {"smiles": "O=C(O)CN(c1cccc(C(F)(F)F)c1)S(=O)(=O)c1ccccc1", "growth rescue": "inactive: -11.3%"},
      {"smiles": "CCOC(=O)N1CCc2c(sc3c2c(=O)n(CCc2ccccc2)c(=O)n3Cc2ccc(F)cc2)C1", "growth rescue": "inactive: -2.01%"},
      {"smiles": "CC(=O)NNC(=O)c1csc(Cc2c(Cl)sc3ccc(Cl)cc23)n1", "Potency": "inconclusive [activator, single point]"},
      {"smiles": "CC(Oc1ccc(Cl)cc1)C(=O)OCC(=O)Nc1ncc(Cl)cc1Cl", "note": "(stereo unspecified)", "Potency": "inconclusive [activator, single point]"},
      {"smiles": "Cc1cccc(OCC(=O)Nc2ccc3oc(=O)ccc3c2)c1", "Potency": "inconclusive [activator, single point]"},
      {"smiles": "Cc1ccc(N2C(=O)C3ON(c4ccccc4)C(c4ccncc4)C3C2=O)cc1", "note": "(stereo unspecified)", "Potency": "inconclusive [activator, partial curve, poor fit]"},
      {"smiles": "CN(C(=O)CSc1ncnc2sc(-c3ccccc3)cc12)C1CCS(=O)(=O)C1", "note": "(stereo unspecified)", "Potency": "inconclusive [activator, single point]"},
      {"smiles": "C[C@@H]1CN([C@H](C)CO)C(=O)c2cc(NC(=O)Nc3ccc(C(F)(F)F)cc3)ccc2O[C@H]1CN(C)C(=O)Nc1ccc(F)cc1", "growth rescue": "inactive: -8.06%"},
      {"smiles": "O=C(Nc1ccc(F)cc1F)c1cc2n(n1)C(C(F)(F)F)C1CCCCC1N2", "note": "(stereo unspecified)", "growth rescue": "inactive: 2.4% [at 9.22 µM, 0% DMSO, 100% iron-clioquinol control]"}
    ]}
  ]
}
